Results are given in words; binding and its absence hold for the method and conditions named. In cells and extracts the contact can be indirect. Some results given as binding are weak or reduced against the parent protein; the word gives no strength. Sequences can lack the tags named with a protein.

Amino acid sequences for entries named in this document (tags omitted).
UniProt Q01371: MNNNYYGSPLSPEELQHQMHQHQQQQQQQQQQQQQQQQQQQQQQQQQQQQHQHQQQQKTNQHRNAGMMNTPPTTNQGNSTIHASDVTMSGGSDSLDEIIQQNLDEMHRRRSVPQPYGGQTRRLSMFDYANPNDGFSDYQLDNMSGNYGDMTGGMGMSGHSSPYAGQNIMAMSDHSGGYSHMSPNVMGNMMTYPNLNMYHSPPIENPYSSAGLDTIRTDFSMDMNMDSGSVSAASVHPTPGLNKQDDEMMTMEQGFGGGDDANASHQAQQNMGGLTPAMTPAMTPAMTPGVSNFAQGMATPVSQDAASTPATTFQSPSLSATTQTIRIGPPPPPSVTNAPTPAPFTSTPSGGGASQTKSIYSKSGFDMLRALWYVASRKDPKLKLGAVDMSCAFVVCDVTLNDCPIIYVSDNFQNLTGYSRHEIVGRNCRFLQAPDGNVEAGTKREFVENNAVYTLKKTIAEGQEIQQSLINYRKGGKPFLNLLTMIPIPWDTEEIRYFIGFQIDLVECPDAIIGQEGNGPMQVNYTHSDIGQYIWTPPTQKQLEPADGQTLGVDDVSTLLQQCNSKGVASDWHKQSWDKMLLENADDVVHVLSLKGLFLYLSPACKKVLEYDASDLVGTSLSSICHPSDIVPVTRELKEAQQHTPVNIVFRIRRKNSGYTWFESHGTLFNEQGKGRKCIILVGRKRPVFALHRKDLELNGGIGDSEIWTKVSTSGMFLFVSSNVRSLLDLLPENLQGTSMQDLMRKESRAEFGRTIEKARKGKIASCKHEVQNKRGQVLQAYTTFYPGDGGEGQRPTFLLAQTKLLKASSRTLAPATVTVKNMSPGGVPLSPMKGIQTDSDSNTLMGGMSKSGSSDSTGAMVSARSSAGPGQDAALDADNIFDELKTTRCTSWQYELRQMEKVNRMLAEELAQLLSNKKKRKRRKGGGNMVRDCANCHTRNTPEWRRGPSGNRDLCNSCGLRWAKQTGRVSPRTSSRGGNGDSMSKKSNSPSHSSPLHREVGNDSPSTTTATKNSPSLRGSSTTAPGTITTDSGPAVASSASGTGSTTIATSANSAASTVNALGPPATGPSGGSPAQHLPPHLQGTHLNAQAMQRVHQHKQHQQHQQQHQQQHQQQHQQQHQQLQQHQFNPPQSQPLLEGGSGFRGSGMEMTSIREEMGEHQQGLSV

For assay [1], the target named is T1, FRQ Δ107–148, V5H6-tagged (Neurospora crassa) (UniProt P19970).
T1 sequence: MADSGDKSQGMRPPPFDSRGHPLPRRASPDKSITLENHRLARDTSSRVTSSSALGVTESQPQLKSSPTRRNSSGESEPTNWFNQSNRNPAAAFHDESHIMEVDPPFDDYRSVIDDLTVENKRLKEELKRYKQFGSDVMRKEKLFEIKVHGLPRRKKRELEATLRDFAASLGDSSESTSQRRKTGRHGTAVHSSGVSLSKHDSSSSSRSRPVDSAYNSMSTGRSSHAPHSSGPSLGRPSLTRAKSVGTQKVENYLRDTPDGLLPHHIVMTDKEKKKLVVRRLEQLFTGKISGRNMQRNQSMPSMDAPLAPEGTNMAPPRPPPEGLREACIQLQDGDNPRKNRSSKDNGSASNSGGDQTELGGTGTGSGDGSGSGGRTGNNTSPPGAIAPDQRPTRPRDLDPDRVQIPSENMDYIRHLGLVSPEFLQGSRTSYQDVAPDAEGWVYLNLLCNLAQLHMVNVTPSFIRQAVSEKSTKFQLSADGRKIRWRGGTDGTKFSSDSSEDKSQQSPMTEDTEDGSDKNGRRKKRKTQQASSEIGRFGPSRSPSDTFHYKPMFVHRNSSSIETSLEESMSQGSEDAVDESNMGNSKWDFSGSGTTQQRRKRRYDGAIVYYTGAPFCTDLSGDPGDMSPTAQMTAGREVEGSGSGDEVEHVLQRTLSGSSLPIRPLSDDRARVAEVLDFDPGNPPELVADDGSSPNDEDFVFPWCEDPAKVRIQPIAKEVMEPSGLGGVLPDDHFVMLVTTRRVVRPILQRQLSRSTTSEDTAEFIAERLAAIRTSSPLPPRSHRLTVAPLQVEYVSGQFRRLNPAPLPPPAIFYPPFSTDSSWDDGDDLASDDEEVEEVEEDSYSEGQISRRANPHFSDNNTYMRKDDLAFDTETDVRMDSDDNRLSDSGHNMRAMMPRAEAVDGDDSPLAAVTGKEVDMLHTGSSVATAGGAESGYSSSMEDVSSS
The assay is described as follows: co-IP; V5H6-tagged FRQ (wild type or mutant) pulled down with V5 agarose from Neurospora lysate (cultures in the light, 25 °C); 50 mM Hepes pH 7.4, 137 mM NaCl, 10% glycerol, 0.4% NP-40; 4 °C, 2 h; Western blot with FRQ, FRH, WC-1 and WC-2 antibodies. In general terms: In western blotting, separated proteins are transferred to a membrane and probed.

The target of assay [2] is T2, FRQ Δ435–481, V5H6-tagged (Neurospora crassa) (UniProt P19970).
T2 sequence: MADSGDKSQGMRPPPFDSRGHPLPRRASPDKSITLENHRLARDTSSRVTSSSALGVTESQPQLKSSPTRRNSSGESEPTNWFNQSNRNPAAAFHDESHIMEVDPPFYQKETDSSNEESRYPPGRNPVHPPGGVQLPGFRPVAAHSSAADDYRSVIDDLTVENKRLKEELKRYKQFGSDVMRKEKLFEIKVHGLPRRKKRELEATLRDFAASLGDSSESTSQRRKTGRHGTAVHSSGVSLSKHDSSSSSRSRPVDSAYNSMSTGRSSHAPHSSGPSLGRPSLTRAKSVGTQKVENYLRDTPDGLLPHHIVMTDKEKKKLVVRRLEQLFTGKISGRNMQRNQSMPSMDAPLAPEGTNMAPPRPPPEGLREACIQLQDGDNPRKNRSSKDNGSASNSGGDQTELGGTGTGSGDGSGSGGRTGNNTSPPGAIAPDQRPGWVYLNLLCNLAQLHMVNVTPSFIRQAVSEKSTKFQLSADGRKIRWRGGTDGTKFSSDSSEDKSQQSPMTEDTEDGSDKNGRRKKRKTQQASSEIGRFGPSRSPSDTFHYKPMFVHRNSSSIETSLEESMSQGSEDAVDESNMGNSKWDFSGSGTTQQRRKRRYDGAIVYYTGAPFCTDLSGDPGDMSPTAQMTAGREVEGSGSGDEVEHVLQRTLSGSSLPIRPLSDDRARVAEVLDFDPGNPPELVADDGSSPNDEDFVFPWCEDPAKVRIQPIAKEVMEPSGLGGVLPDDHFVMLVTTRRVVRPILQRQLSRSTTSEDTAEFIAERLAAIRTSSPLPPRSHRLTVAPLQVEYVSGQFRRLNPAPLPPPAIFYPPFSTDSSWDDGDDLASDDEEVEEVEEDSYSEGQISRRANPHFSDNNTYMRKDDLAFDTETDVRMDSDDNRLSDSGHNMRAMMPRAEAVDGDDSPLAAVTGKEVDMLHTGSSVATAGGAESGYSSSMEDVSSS
Described as above.

With “White Collar-1 (WC-1) (from UniProt Q01371 1-1167)”, the values for the binding result in assay [1] and in assay [2] were “binds weakly” and “binds”, respectively.
